# Results taken from PubChem BioAssay AID485294 (National Center for Advancing Translational Sciences (NCATS), 2010).
# Among all 370,000 compounds or so, about 150 (0.041%) were called active. This list was built around the results that the source calls inconclusive (neither active nor inactive); the mix of calls is not that of the screen. Calls follow the shape of the dose curve; as a rule, active = well fitted inhibition curve with a large enough effect; inconclusive = small, poorly fitted or top-dose-only effect; inactive = flat fitted curve, though single readings scatter. Potencies of inconclusive entries are left out as doubtful fits.
# Target: Beta-lactamase (Escherichia coli (strain K12)) (UniProt P00811)
# Test: qHTS Inhibitors of AmpC Beta-Lactamase (assay with detergent); also: nearly all actives have a fitted effect of over 25% in size
# Details: AmpC hydrolysis of nitrocefin, absorbance 480 nm, 0.01% Triton; series mostly up to 114 µM
# Procedure, shortened: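 20 mM phosphate pH 7.0 + 0.01% (detergent screen) or 0.0001% Triton X-100; 5.3 nM AmpC reagent; cpd preinc 15 min RT; nitrocefin (800 uM stock) to start; A480 q20 s × 4 min; Activity was normalised to no-enzyme and no-compound control wells.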
# Potency is read from the fitted curve at half-maximal effect; tags tell the direction and shape of the fitted curve.
# Chain of UniProt P00811 (P00811 whole entry, looked up): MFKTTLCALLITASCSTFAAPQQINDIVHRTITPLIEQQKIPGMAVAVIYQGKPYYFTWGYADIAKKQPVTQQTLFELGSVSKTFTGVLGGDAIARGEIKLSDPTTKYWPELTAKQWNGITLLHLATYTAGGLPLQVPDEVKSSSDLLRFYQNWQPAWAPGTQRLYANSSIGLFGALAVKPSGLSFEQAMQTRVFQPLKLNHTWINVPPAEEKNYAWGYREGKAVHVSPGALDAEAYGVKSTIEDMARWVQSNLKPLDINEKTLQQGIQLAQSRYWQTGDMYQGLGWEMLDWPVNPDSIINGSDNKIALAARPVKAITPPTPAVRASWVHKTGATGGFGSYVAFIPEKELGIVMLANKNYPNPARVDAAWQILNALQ
row,SMILES,Potency
1,COc1ccc(Nc2nnc(-c3ccccc3)c3ccccc23)cc1C(=O)N1CCCCC1,"inconclusive [inhibitor, full curve, poor fit]"
2,CCS(=O)(=O)c1ncc(Cl)c(C(=O)Nc2ccc(S(=O)(=O)N3CCC(C)CC3)cc2)n1,"inconclusive [inhibitor, full curve, poor fit]"
3,COc1cc(/C=N/Nc2nc(C)cc(=O)[nH]2)cc(OC)c1O,inactive
4,CCOc1ccc(C(=O)Nc2nnc(S(=O)(=O)Nc3ccccc3)s2)cc1,inactive
5,COC(=O)c1ccc(NC(=O)C(=O)N2CCN(C(=S)Nc3ccc(C)cc3)CC2)cc1,inactive
6,CCOC(=O)c1ccc(N/C=C2\CCCCC2=O)cc1,"inconclusive [inhibitor, full curve, poor fit]"
7,O=C(Nc1ccccc1)Nc1ccc2snnc2c1,inactive
8,Cc1[nH]c2ccccc2c1C(=O)COC(=O)CCS(=O)(=O)c1ccccc1Cl,"inconclusive [inhibitor, full curve, poor fit]"
9,O=C(Nc1ccc(Br)cc1)C1CCCC1,"inconclusive [inhibitor, single point]"
10,Cc1ccc(NC(=O)CN(C)S(=O)(=O)c2cccc3cccnc23)cc1,"inconclusive [inhibitor, full curve, poor fit]"
11,CC(=O)Nc1nc(C)cs1,"inconclusive [inhibitor, full curve]"
12,COc1ccc(C(=O)COC(=O)CCNS(=O)(=O)c2ccccc2)c(OC)c1,"inconclusive [inhibitor, full curve, poor fit]"
13,Clc1ccc2c(c1)-c1c(cnc3cc(-c4ccccc4)nn13)CO2,inactive
14,CCc1ccccc1Nc1nc(N)nc(COC(=O)C2CCN(C(=O)c3ccc(F)cc3)CC2)n1,"inconclusive [inhibitor, full curve, poor fit]"
15,CC[N+]1=CN(c2ccccc2)C(C)=CC1(C)C,"inconclusive [inhibitor, partial curve]"
16,CCN(CC)S(=O)(=O)c1ccc(NC(=O)Nc2cccc(C(F)(F)F)c2)cc1,inactive
17,COCCN(C(=O)COC(=O)c1oc2ccc(OC)cc2c1C)c1c(N)n(Cc2ccccc2)c(=O)[nH]c1=O,"inconclusive [inhibitor, single point]"
18,CCC(=O)NC(NC(=S)Nc1cccc2cccnc12)C(Cl)(Cl)Cl (stereo not drawn),"inconclusive [inhibitor, full curve, poor fit]"
19,Cc1ccc(NC(=O)CCC(=O)c2cccs2)nc1,"inconclusive [inhibitor, partial curve]"
20,Cc1cc(=O)n2c3ccccc3n(C)c2n1,"inconclusive [inhibitor, full curve, poor fit]"
21,CCOC(=O)c1cc2c(ccn2C)n1Cc1ccccc1Cl,"inconclusive [inhibitor, single point]"
22,Cc1cc(F)ccc1N1CCC(N2CCN(C(C)C)C(CCO)C2)CC1 (stereo not drawn),inactive
23,COc1cc2c(cc1OC)-c1cc(OCc3cccnc3)nc(=O)n1CC2,"inconclusive [inhibitor, partial curve, poor fit]"

row,SMILES,Potency
1,Cc1cc(C(=O)NCC(=O)OC(C)C(=O)N2CCOCC2)ccc1[N+](=O)[O-] (stereo not drawn),"inconclusive [inhibitor, single point]"
2,CC(C)(C)c1ccc(C(=O)Nc2ccccc2Cl)cc1,"inconclusive [inhibitor, single point]"
3,COc1ccc(OC)c(C(=O)NC(CC(N)=O)c2ccc(N3CCCCCC3)c([N+](=O)[O-])c2)c1 (stereo not drawn),"inconclusive [inhibitor, full curve, poor fit]"
4,COc1ccc(S(=O)(=O)NCc2ccccn2)c(C)c1C,"inconclusive [inhibitor, partial curve, poor fit]"
5,CC(C)CC(=O)Nc1nc2nc(-c3ccccc3)cc(=O)n2[nH]1,inactive
6,COc1ccc(N2CCN(C(=O)COC(=O)CCc3ccccc3)CC2)cc1,"inconclusive [inhibitor, full curve, poor fit]"
7,CCCN1CCN(C(=O)Cn2c(-c3cccs3)cc3ccccc32)CC1,inactive
8,O=C(c1ccco1)N1CCN(C(=O)N2CCCCC2)CC1,"inconclusive [inhibitor, single point]"
9,Cc1cc(N2CCCCC2)nc2ccc(NC(=O)/C=C/c3ccc(OC(C)C)cc3)cc12,inactive
10,COc1ccc2oc(C(=O)OCc3c(C)noc3C)c(C)c2c1,"inconclusive [inhibitor, single point]"
11,Cn1c(SCC(=O)NCCc2ccccc2)ncc(C(=O)Nc2ccc(F)cc2)c1=O,"inconclusive [inhibitor, partial curve]"
12,Cc1cccnc1-n1c(-c2ccco2)nc2ccccc2c1=O,"inconclusive [inhibitor, full curve]"
13,C=CCNCC(=O)N1N=C(c2ccc3ccccc3c2)CC1c1ccc(OC)cc1 (stereo not drawn),"inconclusive [inhibitor, partial curve]"
14,O=C(CN1C(=O)C2C3C=CC(C3)C2C1=O)OCC(=O)c1ccc(Cl)cc1 (stereo not drawn),inactive
15,CCCCOC(=O)C1C2C=CC3(CN(CCc4ccccc4)C(=O)C13)O2 (stereo not drawn),"inconclusive [inhibitor, full curve, poor fit]"
16,COc1ccc(NC(=O)c2ccc3c(c2)C(=O)N(Cc2cccnc2)C3=O)c(OC)c1,"inconclusive [inhibitor, partial curve]"
17,CC1(C)Cc2c(c(N3CCOCC3)nc3snc(N)c23)CO1,"inconclusive [inhibitor, single point]"
18,COc1ccc(NC(=O)CCCCC(=O)Nc2ccc(OC)cc2)cc1,inactive
19,CCOc1ccccc1CN(CCc1ccc2c(c1)OCO2)Cc1ccccn1,"inconclusive [inhibitor, full curve, poor fit]"
20,O=C(C[n+]1ccccc1)N/N=C/c1cc(Br)ccc1O,inactive
21,CC(C)Oc1ccc(C(=O)Nc2cc(S(=O)(=O)N3CCOCC3)ccc2N2CCOCC2)cc1,"inconclusive [inhibitor, full curve]"
22,CCCCn1c(SCc2ccc(C(=O)OC)o2)nc2cc(S(N)(=O)=O)ccc21,"inconclusive [inhibitor, full curve, poor fit]"
23,COc1cccc(CN2CC(C(=O)NCc3ncc(C)[nH]3)CCC2=O)c1 (stereo not drawn),"inconclusive [inhibitor, partial curve]"

row,SMILES,Potency
1,C=CCc1cccc(CNc2nc3ccccc3n2CCC)c1O,"inconclusive [inhibitor, full curve, poor fit]"
2,CCc1ccc(C(=O)Nc2nc(C)cs2)s1,inactive
3,O=C(Cn1cnc(Cl)c1Cl)c1ccccc1,"inconclusive [inhibitor, full curve, poor fit]"
4,CN(C)c1ccc(C(CNC(=O)c2ccc(-c3ccccc3)cc2)N2CCOCC2)cc1 (stereo not drawn),"inconclusive [inhibitor, single point]"
5,CO/N=C(\CS(=O)(=O)Cc1ccc(OC)cc1)c1ccc(Cl)cc1,"inconclusive [inhibitor, single point]"
6,Cc1cc(Nc2cccc(Cl)c2)c2ccccc2n1,inactive
7,O=C(COC(=O)c1cc[n+]([O-])cc1)Nc1c(Cl)cccc1C(F)(F)F,"inconclusive [inhibitor, full curve, poor fit]"
8,Cc1cc(C(=O)OCC(=O)NCc2ccco2)c(C)n1-c1ccccc1,"inconclusive [inhibitor, full curve, poor fit]"
9,CSc1ccc(/C=C(\C#N)C(=O)NC2CCCCC2C)cc1 (stereo not drawn),inactive
10,O=C1CCCCN1CC(=O)N1CCCC(Nc2ccc(F)c(F)c2)C1 (stereo not drawn),"inconclusive [inhibitor, full curve, poor fit]"
11,COc1ccc(CNC(=O)CCC2N=C3c4ccccc4N=C(SCc4cccc(F)c4)N3C2=O)cc1 (stereo not drawn),inactive
12,O=C(NCCOc1ccccc1)C(=O)NCC1CCCO1 (stereo not drawn),inactive
13,O=C(CCS(=O)(=O)c1ccc2c(c1)NC(=O)CS2)NCc1cccs1,"inconclusive [inhibitor, single point]"
14,COc1cccc(C2CC(=O)Nc3c2c(=O)n(C)c(=O)n3C)c1OC (stereo not drawn),"inconclusive [inhibitor, full curve, poor fit]"
15,O=C(Nc1ccc2c(c1)OCCO2)C(=O)NC1CC1,"inconclusive [inhibitor, full curve]"
16,CC(=O)Nc1ccc(S(=O)(=O)N2CCC(C(=O)O)(c3ccccc3)CC2)cc1,"inconclusive [inhibitor, full curve, poor fit]"
17,CC(C)c1ccc(NC(=O)c2ccccc2NC(=O)C2CCCCC2C(=O)O)cc1 (stereo not drawn),inactive
18,Cc1ccc(C)c(NC(=O)N2CCC(CN3CCOCC3)CC2)c1,"inconclusive [inhibitor, full curve, poor fit]"
19,Cc1ccc(S(=O)(=O)N(C)C)cc1NC(=O)C(C)[N+]12CCN(CC1)CC2 (stereo not drawn),"inconclusive [inhibitor, single point]"
20,Cc1ccc(COC(=O)CCCN=C2NS(=O)(=O)c3ccccc32)cc1,inactive
21,COc1cccc(OC)c1C(=O)NCCOc1cc(C)cc(C)c1,"inconclusive [inhibitor, full curve, poor fit]"
22,CC(C)Oc1cccc(C(=O)Nc2ccc3oc(-c4cccc(Cl)c4)nc3c2)c1,inactive
